This is one part of the list.
These sequences were tested against T1, OsWOX13 (Oryza sativa, UniProt Q5QMM3 1-267) (assay: protein-binding microarray (RPBM); PBS, 2% BSA, 51.3 ng/ul salmon testes DNA, 50 uM zinc acetate, 200 nM TF, 25 C, 1 h; high values mean tight binding). Details: protein: recombinant; tags: N-terminal polyhistidine and DsRed monomer fusion (pET32a); label: CyDye5-dUTP incorporated in the synthesized complementary strand; 3' TTTTT single-stranded linker to array surface; dsDNA, one strand shown.
T1 sequence: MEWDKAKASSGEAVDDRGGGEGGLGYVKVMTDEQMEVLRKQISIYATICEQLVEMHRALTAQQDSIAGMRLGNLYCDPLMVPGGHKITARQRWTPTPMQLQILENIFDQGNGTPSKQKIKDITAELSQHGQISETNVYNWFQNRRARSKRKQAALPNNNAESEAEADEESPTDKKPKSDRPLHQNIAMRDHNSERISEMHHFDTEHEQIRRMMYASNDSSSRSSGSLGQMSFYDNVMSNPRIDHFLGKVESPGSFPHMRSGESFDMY
In short: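 Binding signal is defined as the fluorescence intensity of each feature in arbitrary units, read on an Axon 4000B scanner. Transcription factors with N-terminal polyhistidine and DsRed fusions came from E. coli BL21-CodonPlus and were purified on Ni–NTA. They were incubated at 200 nM for 1 h at 25 °C on a custom Agilent array that had been made double-stranded with Cy5-dUTP, with 50 µM zinc acetate present, and the array was washed.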

| Sequence | binding signal |
| --- | --- |
| TTTGATGACCTTTTGCTTGATCTCGAAATTAAAATTCAAGCGGAGTCACCTAGTGCAG | 3780 fluorescence intensity (a.u.) |
| TTCAAGGCATTATTACTTAATTTGTCCACAAAATTGAAGACGGAGTCACCTAGTGCAG | 3410 fluorescence intensity (a.u.) |
| AAGTCGTTACTCGTTAATTGGCAGCAGAAGCGAAGGATATCGGAGTCACCTAGTGCAG | 15400 fluorescence intensity (a.u.) |
| TGTGGCAATTAAGAATTTGTCACTCGCTGTTTATAACATGCGGAGTCACCTAGTGCAG | 3510 fluorescence intensity (a.u.) |
| GTTGACGTGGATATATATCTGATTGATCGTACAGCCAACTCGGAGTCACCTAGTGCAG | 23500 fluorescence intensity (a.u.) |
| CAGCTAGGATAATTGAGAGTTGACACGTAAGGCAGCTTCGCGGAGTCACCTAGTGCAG | 21500 fluorescence intensity (a.u.) |
| CGAGGAGCGGGGTGGGGTCGGAGGCGGGGAGGGAGGACGCCGGAGTCACCTAGTGCAG | 3730 fluorescence intensity (a.u.) |
| AAAATATATTGATAATTGCTTTGTAATTATCGCAGCAAAGCGGAGTCACCTAGTGCAG | 35600 fluorescence intensity (a.u.) |
| GGATGGAGTGAGTATGATTTGCCCATTAATCACAGACTCGCGGAGTCACCTAGTGCAG | 5040 fluorescence intensity (a.u.) |
| AAAGATTGAAAGAATAGTACTAGTTGAGGAGTTTGCTGATCGGAGTCACCTAGTGCAG | 22000 fluorescence intensity (a.u.) |
| TTAATTATTAAATTCTTTTCACTGTCTACTACTTGTTCCGCGGAGTCACCTAGTGCAG | 15300 fluorescence intensity (a.u.) |
| AAAATTCAAATTTTATATAGTTCAATCAAACTCGGATAGACGGAGTCACCTAGTGCAG | 4280 fluorescence intensity (a.u.) |
| TCAATATCTGATAATTATGTAGTGCTTATGGTTGATTAGCCGGAGTCACCTAGTGCAG | 4380 fluorescence intensity (a.u.) |
| ATATATTTCATCAATTTGTTTACTTTACATATGGGAGAGGCGGAGTCACCTAGTGCAG | 3780 fluorescence intensity (a.u.) |
| AGAAAACCATTATATTATTAATTGAGTTTTAATTTATTTCCGGAGTCACCTAGTGCAG | 5180 fluorescence intensity (a.u.) |
| GATAAATTTAAGCCTTGTTTGTATTTGTCTGCATGAAGACCGGAGTCACCTAGTGCAG | 7120 fluorescence intensity (a.u.) |
| TTGGCCTTCAATCATTGACACTTGGACAGAACAAATCAATCGGAGTCACCTAGTGCAG | 26000 fluorescence intensity (a.u.) |
| ACTTAATTTGGCTCTTTAGGCCTTTACCAACGTGTCACTCCGGAGTCACCTAGTGCAG | 8310 fluorescence intensity (a.u.) |
| GTTGACGATTAAAACAAACCAGTGTTTGACTTTCTTACTGCGGAGTCACCTAGTGCAG | 3160 fluorescence intensity (a.u.) |
| ATTGGCTATTAGATTGACTATAGATGAATTGGAGCTAGTACGGAGTCACCTAGTGCAG | 13600 fluorescence intensity (a.u.) |
| CGAGGTTCCCAATCACGCTACCTCCACTCACAGAGCCAACCGGAGTCACCTAGTGCAG | 3410 fluorescence intensity (a.u.) |
| CACAATCACGAATTGAAGAAAGTCCTTCATTTCACATCAACGGAGTCACCTAGTGCAG | 3660 fluorescence intensity (a.u.) |
| GATCTGATTAAGCATCTCATGCTTTCTCGCTTTGATTCTCCGGAGTCACCTAGTGCAG | 5880 fluorescence intensity (a.u.) |

Reference: publication PMC7819943, “Rice protein-binding microarrays: a tool to detect cis-acting elements near promoter regions in rice”
